# In the supplement of paper PMC11417369:
# The list shows a part of the results.
# Tested on: PfHDP1 homeodomain (GST-tagged)
# Assay: gcPBM binding intensity (ln(normalized median fluorescence intensity)); higher = stronger DNA binding
# Procedure, shortened: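 For binding intensity, the highest Masliner-normalised natural-log median intensity across replicate spots of either probe orientation was taken. Protein bound to the array was stained with Alexa488 anti-GST antibody and scanned at 488 nm. The protein, GST-tagged P. falciparum DNA-binding domains from E. coli at about 25 μg on average, had been applied for 1 h to an Agilent 4 × 180k array of primer-extended double-stranded 36-bp intergenic genomic probes and negative controls.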
row,Sequence,gcPBM binding intensity (ln)
1,TGTTATTATTAAGACACACACACAAAAAAAAAAAAA [CACACA_site1481],6.51
2,TTTATAATATGTTATACATGCAGGTACCTTTTTGTA [TGCATGCA_site746],6.63
3,AAGATTAAACATTGCACACAGAAATATATTTTCTAT [CACACA_site2374],9.55
4,TTGTTCATCTTTTTTTTTTTTTTTTTTTTTTAAATC [CACACA_negctrl_site191],5.69
5,TTTCAATGTGACACGTGTCCGTAAAATTACATAATT [XGTACX_site7073],6.61
6,ATTAATAAAAGATAAAGTACAAATCGGAAAATGAAT [XGTACX_site7846],6.99
7,ATCTATATTATTTCTACACACATATCTATAATATGT [CACACA_site7561],7
8,TTCTTTTTTTTTTTTTTTTTTTTATAGTACAAAAAA [TGCATGCA_negctrl_site450],5.88
9,ATATCAAATAGACAAACACACAAAGGAAGAGTGAAA [CACACA_site3921],6.76
10,TTTTTTTTTTTGTGTGCATGTGCTAGGAAAGGTAGG [TGCATGCA_site330],7.93
11,TTTTAATGAAATATCAAAAAAATTTATGATTTCAAA [GTGCAC_negctrl_site662],5.52
12,AATAATATATAAGAAAGTACAAAAAAATAAAATAAA [XGTACX_site3302],6.8
13,AAAAAGAAAAAACTTACACACATATATACACCCATG [CACACA_site8079],6.98
14,GAGAAATTTATACATACACACATATAAATATTATAG [CACACA_site7819],6.45
15,CTTTGCATTACGAACATACACACAGAATAACTGAAA [CACACA_site3024],6.95
16,TAGAAAAAAATAGATGCATGCAATGAATGAATAATA [TGCATGCA_site14],7.03
17,TTTCTATTACGAACGTGTACATACATTATTCTTAAA [XGTACX_site5816],6.83
18,ATATATTTTGGGGACTTTTTAAAAAAGAAGTATTAA [TGCATGCA_negctrl_site337],6.79
19,TTTTTGTTAATAAGTATGCACTATCTCATTTTTGTA,8.3
20,TAGTAGTATTCATCCAGTACATATAAATGTATAATA [XGTACX_site7552],6.23
21,CTATACTATGAAAAGTGTACGAATAGCTAGCTATTT [XGTACX_site5927],6.39
22,GAGCATTACACATATACACACATATAAATAAACATA [CACACA_site7315],7.32

row,Sequence,gcPBM binding intensity (ln)
1,CAAGAATTAAAATAAAGTACAAAAGTAACAACTTTT [XGTACX_site1474],5.84
2,AAAAAAAAGGAAAAGGGTACAAAACCATACTTACAT [XGTACX_site4783],6.24
3,ATTAGTGACATTATTACACACAAAAGAAAACAGAAA [CACACA_site3984],7.06
4,TGAATCTATATACAGGTGCGTAAAAAATAACTTATA,7.02
5,ATGATAGTAATTAATAGTACTTTTTTTGATACAAAA [XGTACX_site4288],6.01
6,TCGTGTTTTAAAAAAATGAAGAAAAGTAAAAAAAAA [XGTACX_negctrl_site23],6.47
7,ATTAAATGTATGACTTGTACATAAAATAAAAAAAAA [XGTACX_site6555],6.56
8,TAATATGAATATATATGTACATACAATTTGTTATAT [XGTACX_site5815],6.55
9,TTATCATTACATGAGTGTACATTATTATATTTTTTT [XGTACX_site7845],6.65
10,TAAAGATATAAATGCACACGTATTAAAAAAAAAATA [CACACA_site952],9.54
11,GAAAGAAAGAAAGAAAGTACATATAAAAATATACAT [XGTACX_site7299],6.03
12,ATATATTTTTTTTTTTGTACGTATATTTATATAATT [XGTACX_site8719],6.76
13,TTTTAATGTATATTTTGTACGTATTATTAATATTCG [XGTACX_site8453],6.3
14,TATCCTAATGCTACCACACACACAAAAACAAATAAT [CACACA_site2609],7.2
15,ATGTTGAAAGGAAAAAATAATAAAATCGATATATTA [CACACA_negctrl_site549],6.33
16,AAAAAAAAGAATAGAGCATGCAAAATATATGAAATA [TGCATGCA_site933],7.34
17,CCTTACTTCTTATAAAGTACCCAATGATATACATTA [XGTACX_site1554],6.38
18,AATATTTATGGGTGCACACAAACATACATATATATA [CACACA_site3395],10
19,TGTATGATTATGTTGTGTACGTAAAATATGAAAAAT [XGTACX_site1720],7.39
20,GTATCATAAAAGTATACACACATACATACATATGTA [CACACA_site5456],6.81
21,GCACACATATAATTAAACATATATTTGTATTATTTT [GTGCAC_negctrl_site327],6.5
22,ATTTTCCTTTAATTATGTACTTATGTAATAATAATG [XGTACX_site2612],6.96

row,Sequence,gcPBM binding intensity (ln)
1,ATCTCTACAAAGTGCACACACGTAAAAACATATATA [CACACA_site6046],9.38
2,ATATATTTATGTATCACACACAAAAAAAAAAAATAA [CACACA_site255],6.42
3,AATTTTTTTCTCCAAGTGCATTAGAACATTAACGTA [GTGCAC_site9413],8.91
4,ACAAATAAATAAAAAACACACACAAATAAATAAATA [CACACA_site8708],6.89
5,AGTATATAAAATACTGTATCGATGGGGGAGGGCGCA [CACACA_negctrl_site1612],7.38
6,AATATAATGCAATATACACACATATATTTCTCTTTT [CACACA_site7276],7.81
7,TAATAATAAAATATTTGTACATATAAAATATGGCTG [XGTACX_site7904],6.13
8,ATTATTATTTATATGATACACACGTACATATACGCA [CACACA_site3823],6.36
9,TATAAAAAATAATTATCATGAAATATATGATCATCA [TGCATGCA_negctrl_site137],6.48
10,TCAAAAATGAGTTACACACACACATATATATATATA [CACACA_site2229],9.36
11,ATATGAATAAATAAAAGTACATACATAATGTATTAT [XGTACX_site5969],6.37
12,TTAAAAAAAATATAATGTACTTGTAGAATTATATTT [XGTACX_site6220],5.76
13,TATATTTTTTATAAATGTACATGGATAGGCATAAAC [XGTACX_site8401],7.14
14,TATATATAATATATATGTACATAATATATTTTATAT [XGTACX_site2909],6.53
15,TAAAACACTCATGGCACACATAAAACATTTTTATGA [CACACA_site3574],6.51
16,AACAAATATATTAACACACAAACATATAAACCAATG [CACACA_site3970],6.89
17,AATTATTGTGAAGGGAAAACAAAAAAGTTTATAATT [CACACA_negctrl_site1337],6.51
18,AAGCGAATATATATCACACACAAAAAAATCAGACTA [CACACA_site2108],6.67
19,AACTAATAAAAAAAAAGTACACAATATGTAAATAAC [XGTACX_site5263],6.89
20,AAATTAATTAAATATACACACATATATAGATATATA [CACACA_site6321],6.46
21,ACCACATTTTTTTTTGCATGTTGTTTAAAAAAAGGC [TGCATGCA_site137],6.74
22,TATATATTATATATATGTACATACTTTTTACGTTCA [XGTACX_site2493],6.75

row,Sequence,gcPBM binding intensity (ln)
1,AGTTTAAATTAAATTACACACTACGAATAATATATT [CACACA_site7811],6.46
2,AGTATAAGCATTATTGTGCACATAATTATAATTTTT,11
3,TATTAATCTTTTTTTAAACAAAAAATTAAGCAAATT [CACACA_negctrl_site884],6.2
4,TATATATTAATAAATAGTACCCGTGGAATTTATATT [XGTACX_site5855],6.32
5,ATTGTTCTCCAAAAGTGTACGTATTATTTTTCTGGA [XGTACX_site1404],6.56
6,GTTGCAATTAACACTAGTACATATAAGTAGTTTATT [XGTACX_site2063],6.61
7,AATAATGAAACAGGAAAAAAATATTGTTAAAATGTA [XGTACX_negctrl_site400],6.58
8,TCCTTACATTTTAAAACACACAAAAATTAATTGTTA [CACACA_site2313],6.56
9,TACTTTTATATGAATACACACAGGAATATAAATATG [CACACA_site7647],6.53
10,AAAAAATAGTGGTATGCATGTCCCTTGTATTTTCTT [TGCATGCA_site587],6.24
11,TGGATACACAAAAATTAAAAAAATAAACAAACAAAT [GTGCAC_negctrl_site105],6.97
12,AAAATACCCATTTTAGTACACACTTAAAAAATTATT [CACACA_site8966],6.28
13,CATACATATATTATTGCACACATATAAAATACCCCC [CACACA_site9292],10.4
14,TACCAATAAATGAAGGTGCGTGCTTGCCTTTGCTAT,6.29
15,TTGAATAAATTGGAATAAATATAATAAAATAAGGAA [XGTACX_negctrl_site302],6.81
16,TTGTATAGTCTGATATGTACATATATATATATATAA [XGTACX_site4307],6.89
17,TAGGAATTTAATAAATGTACATATACATAATATATA [XGTACX_site3672],6.12
18,ACCACCAGGAACAAAGCACATTAGGAAAAATAAAAC [XGTACX_negctrl_site228],6.6
19,TATAAAAAATTAAAATTTTTCTTATTTTTTTTAGAT [TGCATGCA_negctrl_site125],6.34
20,TATGCAATATATTATATTCTGTAAATATTATATATT [TGCATGCA_negctrl_site67],6.49
21,TTTTTTAAAATATGGACACACATATATATATCTGTA [CACACA_site5535],6.43
22,ATAATCAACATTAGGTGTACAAAATATGTATGTTTT [XGTACX_site6696],6.8
